{
  "source": "the supplement of paper PMC8728848",
  "binders": {"B1": {"name": "PX9961T-pdi-555-33-555 (Parabacteroides distasonis) (protein)", "chain": "FDEETAFQSPTLVYVNTVASLYNNMFKIMGNDRHVYDLNTFSSDEAMLPCRIGDWEDGGLWQNIFLHRWGTMNDLTKNSWDFLYEQIGKCNQSVDKLQAFAEEQPDVEYFKVYLEEVRAVRAFFYYELLDLFARVPLVTSSTTPMSEVKQSERSVVFNFVRSELEEALPYLSDNRSNQKGEYYGRITKPVAYMILAKLALNAEVYADDNWTDGNRPAGKNIKFTVDGKEMNAWEATIAYVDKLEALGYKLQGNFSENFAVANETSVENIFTVPMDPVAYPDAKDYNLVRTRHYDHATAYGQSGWNGSCATVKAMNVFKFGTADEDPRCKLTYFTGEVTGPDGKTIYTEWDGQKVPLKYEPNAPKVYMDASDGLLVKTAGARMAKYEFDQNAQDGGNLHGNDCVIFRFADALLMKAEAKIRLGQNGDDEVNQVRNRVGAKPLQNVTLDTLLDERMLELAWEGVRRQDLIRFGKFTEATVDRYVGVKHFASSLDYQEDKTGYTTVFSIYADILSLNPNLTQNPGY"}},
  "assay_in_all_cases": "glycan array binding signal (z-score within array); higher = stronger binding",
  "conditions_in_all_cases": "glycan notation: IUPAC condensed, linker removed",
  "key": {"[1]": {"target": "Neu5Ac(a2-6)Gal(b1-4)GlcNAc(b1-3)Gal(b1-4)GlcNAc(b1-3)Gal(b1-4)GlcNAc(b1-2)Man(a1-3)[Neu5Ac(a2-6)Gal(b1-4)GlcNAc(b1-3)Gal(b1-4)GlcNAc(b1-3)Gal(b1-4)GlcNAc(b1-2)Man(a1-6)]GalNAc", "procedure,_shortened": "(§1)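 The Consortium for Functional Glycomics database supplied 3228 glycan arrays, of which those lacking an available protein sequence were dropped. The binding signal, a within-array Z-score, was averaged across arrays of the same protein sequence and across linkers. Negative scores can be read as non-binding.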"}, "[2]": {"target": "Neu5Ac(a2-6)Gal(b1-4)GlcNAc(b1-3)Gal(b1-4)GlcNAc(b1-3)GalNAc", "procedure,_shortened": "as §1"}, "[3]": {"target": "Neu5Ac(a2-6)Gal(b1-4)GlcNAc(b1-3)Gal(b1-4)GlcNAc(b1-3)[Neu5Ac(a2-6)Gal(b1-4)GlcNAc(b1-3)Gal(b1-4)GlcNAc(b1-6)]GalNAc", "procedure,_shortened": "as §1"}, "[4]": {"target": "Neu5Ac(a2-6)Gal(b1-4)GlcNAc(b1-3)Gal(b1-4)GlcNAc(b1-6)[Gal(b1-3)]GalNAc", "procedure,_shortened": "as §1"}, "[5]": {"target": "Neu5Ac(a2-6)Gal(b1-4)GlcNAc(b1-3)Gal(b1-4)[Fuc(a1-3)]GlcNAc(b1-3)Gal(b1-4)[Fuc(a1-3)]GlcNAc", "procedure,_shortened": "as §1"}, "[6]": {"target": "Neu5Ac(a2-6)Gal(b1-4)GlcNAc(b1-3)GalNAc", "procedure,_shortened": "as §1"}, "[7]": {"target": "Neu5Ac(a2-6)Gal(b1-4)GlcNAc(b1-3)[Neu5Ac(a2-6)Gal(b1-4)GlcNAc(b1-6)]GalNAc", "procedure,_shortened": "as §1"}, "[8]": {"target": "Neu5Ac(a2-6)Gal(b1-4)GlcNAc(b1-6)GalNAc", "procedure,_shortened": "as §1"}, "[9]": {"target": "Neu5Ac(a2-6)Gal(b1-4)GlcNAc(b1-6)[Gal(b1-3)GlcNAc(b1-3)]Gal(b1-4)Glc", "procedure,_shortened": "as §1"}, "[10]": {"target": "Neu5Ac(a2-6)Gal(b1-4)GlcNAc(b1-6)[Gal(b1-3)]GalNAc", "procedure,_shortened": "as §1"}, "[11]": {"target": "Neu5Ac(a2-6)Gal(b1-4)GlcNAc6S", "procedure,_shortened": "as §1"}, "[12]": {"target": "Neu5Ac(a2-6)GalNAc", "procedure,_shortened": "as §1"}, "[13]": {"target": "Neu5Ac(a2-6)GalNAc(b1-4)GlcNAc", "procedure,_shortened": "as §1"}, "[14]": {"target": "Neu5Ac(a2-6)GalNAc(b1-4)GlcNAc6S", "procedure,_shortened": "as §1"}, "[15]": {"target": "Neu5Ac(a2-6)GlcNAc(b1-4)GlcNAc", "procedure,_shortened": "as §1"}, "[16]": {"target": "Neu5Ac(a2-6)GlcNAc(b1-4)GlcNAc(b1-4)GlcNAc", "procedure,_shortened": "as §1"}, "[17]": {"target": "Neu5Ac(a2-8)Neu5Ac", "procedure,_shortened": "as §1"}, "[18]": {"target": "Neu5Ac(a2-8)Neu5Ac(a2-3)Gal(b1-3)GalNAc(b1-4)[Neu5Ac(a2-3)]Gal(b1-4)Glc", "procedure,_shortened": "as §1"}, "[19]": {"target": "Neu5Ac(a2-8)Neu5Ac(a2-3)Gal(b1-3)GalNAc(b1-4)[Neu5Ac(a2-8)Neu5Ac(a2-3)]Gal(b1-4)Glc", "procedure,_shortened": "as §1"}, "[20]": {"target": "Neu5Ac(a2-8)Neu5Ac(a2-3)Gal(b1-4)Glc", "procedure,_shortened": "as §1"}, "[21]": {"target": "Neu5Ac(a2-8)Neu5Ac(a2-3)Gal(b1-4)GlcNAc", "procedure,_shortened": "as §1"}, "[22]": {"target": "Neu5Ac(a2-8)Neu5Ac(a2-3)[Gal(b1-3)GalNAc(b1-4)]Gal(b1-4)Glc", "procedure,_shortened": "as §1"}, "[23]": {"target": "Neu5Ac(a2-8)Neu5Ac(a2-3)[GalNAc(b1-4)]Gal(b1-4)Glc", "procedure,_shortened": "as §1"}, "[24]": {"target": "Neu5Ac(a2-8)Neu5Ac(a2-8)Neu5Ac", "procedure,_shortened": "as §1"}, "[25]": {"target": "Neu5Ac(a2-8)Neu5Ac(a2-8)Neu5Ac(a2-3)Gal(b1-4)Glc", "procedure,_shortened": "as §1"}, "[26]": {"target": "Neu5Ac(a2-8)Neu5Ac(a2-8)Neu5Ac(a2-3)[Gal(b1-3)GalNAc(b1-4)]Gal(b1-4)Glc", "procedure,_shortened": "as §1"}, "[27]": {"target": "Neu5Ac(a2-8)Neu5Ac(a2-8)Neu5Ac(a2-3)[GalNAc(b1-4)]Gal(b1-4)Glc", "procedure,_shortened": "as §1"}, "[28]": {"target": "Neu5Ac(a2-8)Neu5Ac(a2-8)Neu5Ac(a2-8)Neu5Ac(a2-3)[GalNAc(b1-4)]Gal(b1-4)Glc", "procedure,_shortened": "as §1"}, "[29]": {"target": "Neu5Ac(a2-8)Neu5Gc(a2-3)Gal(b1-4)GlcNAc", "procedure,_shortened": "as §1"}, "[30]": {"target": "Neu5Ac(b2-6)Gal(b1-4)GlcNAc", "procedure,_shortened": "as §1"}, "[31]": {"target": "Neu5Ac(b2-6)GalNAc", "procedure,_shortened": "as §1"}, "[32]": {"target": "Neu5Ac9Ac(a2-3)Gal(b1-3)GlcNAc", "procedure,_shortened": "as §1"}, "[33]": {"target": "Neu5Ac9Ac(a2-3)Gal(b1-4)GlcNAc", "procedure,_shortened": "as §1"}, "[34]": {"target": "Neu5Ac9Ac(a2-6)Gal(b1-4)GlcNAc", "procedure,_shortened": "as §1"}, "[35]": {"target": "Neu5Gc(a2-3)Gal(b1-3)GlcNAc", "procedure,_shortened": "as §1"}, "[36]": {"target": "Neu5Gc(a2-3)Gal(b1-3)[Fuc(a1-4)]GlcNAc", "procedure,_shortened": "as §1"}, "[37]": {"target": "Neu5Gc(a2-3)Gal(b1-4)Glc", "procedure,_shortened": "as §1"}, "[38]": {"target": "Neu5Gc(a2-3)Gal(b1-4)GlcNAc", "procedure,_shortened": "as §1"}, "[39]": {"target": "Neu5Gc(a2-3)Gal(b1-4)GlcNAc(b1-3)Gal(b1-4)GlcNAc(b1-2)Man(a1-3)[Neu5Gc(a2-3)Gal(b1-4)GlcNAc(b1-3)Gal(b1-4)GlcNAc(b1-2)Man(a1-6)]Man(b1-4)GlcNAc(b1-4)GlcNAc", "procedure,_shortened": "as §1"}, "[40]": {"target": "Neu5Gc(a2-3)Gal(b1-4)[Fuc(a1-3)]GlcNAc", "procedure,_shortened": "as §1"}, "[41]": {"target": "Neu5Gc(a2-6)Gal(b1-4)GlcNAc", "procedure,_shortened": "as §1"}, "[42]": {"target": "Neu5Gc(a2-6)GalNAc", "procedure,_shortened": "as §1"}, "[43]": {"target": "Neu5Gc(a2-8)Neu5Ac(a2-3)Gal(b1-4)GlcNAc", "procedure,_shortened": "as §1"}, "[44]": {"target": "Neu5Gc(a2-8)Neu5Gc(a2-3)Gal(b1-4)GlcNAc", "procedure,_shortened": "as §1"}, "[45]": {"target": "Neu5Gc(a2-8)Neu5Gc(a2-3)Gal(b1-4)GlcNAc(b1-3)Gal(b1-4)GlcNAc", "procedure,_shortened": "as §1"}},
  "note": "This is one part of the list.",
  "data": [
    {"binder": "B1", "values": [
      {"measurement": "glycan array binding signal (z-score)", "setting": "[1]", "result": 0.737},
      {"measurement": "glycan array binding signal (z-score)", "setting": "[2]", "result": -0.229},
      {"measurement": "glycan array binding signal (z-score)", "setting": "[3]", "result": 1.82},
      {"measurement": "glycan array binding signal (z-score)", "setting": "[4]", "result": -0.675},
      {"measurement": "glycan array binding signal (z-score)", "setting": "[5]", "result": 0.003},
      {"measurement": "glycan array binding signal (z-score)", "setting": "[6]", "result": 0.302},
      {"measurement": "glycan array binding signal (z-score)", "setting": "[7]", "result": -0.504},
      {"measurement": "glycan array binding signal (z-score)", "setting": "[8]", "result": -0.494},
      {"measurement": "glycan array binding signal (z-score)", "setting": "[9]", "result": -0.277},
      {"measurement": "glycan array binding signal (z-score)", "setting": "[10]", "result": -0.141},
      {"measurement": "glycan array binding signal (z-score)", "setting": "[11]", "result": 0.399},
      {"measurement": "glycan array binding signal (z-score)", "setting": "[12]", "result": 0.008},
      {"measurement": "glycan array binding signal (z-score)", "setting": "[13]", "result": -0.397},
      {"measurement": "glycan array binding signal (z-score)", "setting": "[14]", "result": 0.324},
      {"measurement": "glycan array binding signal (z-score)", "setting": "[15]", "result": -0.085},
      {"measurement": "glycan array binding signal (z-score)", "setting": "[16]", "result": -0.34},
      {"measurement": "glycan array binding signal (z-score)", "setting": "[17]", "result": -0.54},
      {"measurement": "glycan array binding signal (z-score)", "setting": "[18]", "result": -0.376},
      {"measurement": "glycan array binding signal (z-score)", "setting": "[19]", "result": 0.304},
      {"measurement": "glycan array binding signal (z-score)", "setting": "[20]", "result": -0.001},
      {"measurement": "glycan array binding signal (z-score)", "setting": "[21]", "result": -0.039},
      {"measurement": "glycan array binding signal (z-score)", "setting": "[22]", "result": 0.488},
      {"measurement": "glycan array binding signal (z-score)", "setting": "[23]", "result": -0.668},
      {"measurement": "glycan array binding signal (z-score)", "setting": "[24]", "result": -0.792},
      {"measurement": "glycan array binding signal (z-score)", "setting": "[25]", "result": -0.16},
      {"measurement": "glycan array binding signal (z-score)", "setting": "[26]", "result": -0.427},
      {"measurement": "glycan array binding signal (z-score)", "setting": "[27]", "result": -0.182},
      {"measurement": "glycan array binding signal (z-score)", "setting": "[28]", "result": -0.387},
      {"measurement": "glycan array binding signal (z-score)", "setting": "[29]", "result": 20.7},
      {"measurement": "glycan array binding signal (z-score)", "setting": "[30]", "result": -0.119},
      {"measurement": "glycan array binding signal (z-score)", "setting": "[31]", "result": -0.095},
      {"measurement": "glycan array binding signal (z-score)", "setting": "[32]", "result": -0.047},
      {"measurement": "glycan array binding signal (z-score)", "setting": "[33]", "result": -0.106},
      {"measurement": "glycan array binding signal (z-score)", "setting": "[34]", "result": -0.648},
      {"measurement": "glycan array binding signal (z-score)", "setting": "[35]", "result": -0.258},
      {"measurement": "glycan array binding signal (z-score)", "setting": "[36]", "result": -0.226},
      {"measurement": "glycan array binding signal (z-score)", "setting": "[37]", "result": -0.034},
      {"measurement": "glycan array binding signal (z-score)", "setting": "[38]", "result": -0.278},
      {"measurement": "glycan array binding signal (z-score)", "setting": "[39]", "result": 1.06},
      {"measurement": "glycan array binding signal (z-score)", "setting": "[40]", "result": 0.358},
      {"measurement": "glycan array binding signal (z-score)", "setting": "[41]", "result": 0.432},
      {"measurement": "glycan array binding signal (z-score)", "setting": "[42]", "result": -0.31},
      {"measurement": "glycan array binding signal (z-score)", "setting": "[43]", "result": -0.286},
      {"measurement": "glycan array binding signal (z-score)", "setting": "[44]", "result": 0.008},
      {"measurement": "glycan array binding signal (z-score)", "setting": "[45]", "result": 0.171}
    ]}
  ]
}
